Experimental data: PMC6919601, “Identification of Plasmodium dipeptidyl aminopeptidase allosteric inhibitors by high throughput screening” (PLoS ONE, 2019)
The campaign covered roughly 110,000 compounds. About 230 (0.21%) showed an effect of 50% or more. Some of the results follow.

molecular target: DPAP1 (Plasmodium falciparum, UniProt Q8IIJ9); test: primary screen, percent inhibition; read by cleavage of a fluorogenic dipeptide substrate; higher = more effect of the substance; parameters: species or system P. falciparum D10 trophozoite lysates; single well
Sequence (Q8IIJ9 whole entry, looked up): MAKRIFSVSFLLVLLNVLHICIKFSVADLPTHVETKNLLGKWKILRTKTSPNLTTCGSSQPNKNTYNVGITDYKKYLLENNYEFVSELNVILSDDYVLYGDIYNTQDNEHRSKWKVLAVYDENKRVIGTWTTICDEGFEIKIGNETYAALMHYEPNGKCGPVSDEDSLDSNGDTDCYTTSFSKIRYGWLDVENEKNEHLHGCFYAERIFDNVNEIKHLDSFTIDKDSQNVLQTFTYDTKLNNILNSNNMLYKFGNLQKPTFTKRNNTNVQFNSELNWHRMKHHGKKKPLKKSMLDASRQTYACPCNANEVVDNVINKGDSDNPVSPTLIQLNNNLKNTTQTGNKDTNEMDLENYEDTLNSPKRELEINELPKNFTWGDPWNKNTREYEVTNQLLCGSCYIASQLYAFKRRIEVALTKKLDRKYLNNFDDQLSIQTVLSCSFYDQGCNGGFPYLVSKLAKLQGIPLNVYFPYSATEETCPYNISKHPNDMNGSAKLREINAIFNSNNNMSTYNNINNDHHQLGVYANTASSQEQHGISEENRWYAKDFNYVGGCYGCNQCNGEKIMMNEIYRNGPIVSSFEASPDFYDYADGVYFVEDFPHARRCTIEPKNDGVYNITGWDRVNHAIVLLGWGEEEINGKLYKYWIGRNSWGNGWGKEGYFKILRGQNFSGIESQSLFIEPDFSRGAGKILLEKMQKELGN
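Also: 30 min substrate incubation versus DMSO and 10 µM JCP410 controls.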

Compound | % Inhibition @ 10 uM [%]
CCOc1ccccc1/C=C1\N=C(c2ccc(C)cc2)OC1=O | 0.434
O=C(NCCCN1CCC(Cc2ccccc2)CC1)C1CCC(=O)N1Cc1ccccc1Cl (stereo not drawn) | 3.24
O=C(Cn1nc(-c2ccccc2)ccc1=O)N1CCC2(CC1)OCCO2 | -4.83
COC(=O)/C(C#N)=C\c1ccc(OC)cc1 | 1.83
Cc1nc(Nc2ccc(S(N)(=O)=O)cc2)oc1C | 5.04
COc1ccc(Cc2nnc(NC(=O)Cc3ccc(C)cc3)s2)cc1 | -5.08
CCC1CCCN1Cn1cnc2c3cc(C)ccc3nc-2c1O (stereo not drawn) | 4.8
Oc1ccc(-c2cnc3ccccc3n2)cc1 | 3.58
CC[N+]1=C(/C=C/N(C)C)c2cccc3cccc1c23 | 1.67
Cc1cc(O)c(NC(=O)COc2ccccc2)cc1C | -9.56
Cc1cc(=O)n2nc(N3CCCC3C(=O)NCCCc3ccccc3)sc2n1 (stereo not drawn) | -2
COc1ccc(C(=O)c2sc(Nc3ccccc3F)c(C#N)c2N)cc1 | -4.76
Cc1cccc(C(=O)NCc2nnc(S)n2-c2cccc(C(F)(F)F)c2)c1 | 3.34
Cc1nc(Nc2nc(O)c3c(n2)CCC3)nc2ccccc12 | 2.36
CCCOC(=O)c1ccc(NC(=O)c2ccc(Br)cc2)cc1 | -3.04
O=C(CSc1nc2ccc(NC(=O)c3ccccc3C(=O)O)cc2s1)NCc1ccccc1 | 0.385
CC(=O)C12CC3CC(C1)CC(C(C)=O)(C3)C2 | -5.32
CCc1c(C)nc2c(C#N)c(C)nn2c1O | 4.74
Cc1nn(CCCC(=O)NC(C)CCc2ccccc2)c(=O)c2nccn12 (stereo not drawn) | -1.6
COc1ccccc1CN(C1CCN(C)CC1)S(=O)(=O)c1cc(-c2cc(C)no2)ccc1C | -1.05
C=CCOc1ncc2c(c1C#N)N(Cc1ccccc1)CC2 | -1.52
Cc1ccc(-n2nc3c(=O)n(CCCC(=O)NC(C)CCc4ccccc4)nc(C)c3c2C)cc1 (stereo not drawn) | -5.54

Compound | % Inhibition @ 10 uM [%]
CN(C)CC1CSCCC1(O)c1cccc(Cl)c1 (stereo not drawn) | -4.54
COC(=O)c1cn(C(=O)c2ccc(OC)c(OC)c2)c2ccccc12 | -6.44
CC1=C(C(=O)NCCCN2CCOCC2)C2(CCCCCC2)OC1=O | 2.99
COc1ccc(S(=O)(=O)c2c(C(=O)c3ccc(C)cc3)cnc3cc4c(cc23)OCO4)cc1 | 2.68
O=C(CCC1CCCC1)Nc1ccc2c(c1)OCCO2 | -4.05
C=CCOc1ccccc1CN1CCC(O)CC1 | -3.57
N#CCNC(=O)[C@@H](Cc1ccccc1C(F)(F)F)NC(=O)OCc1ccccc1 | -4.82
N#C/C(=C\c1coc2ccccc2c1=O)c1nc2ccccc2[nH]1 | -2.19
CCCOc1ccccc1/N=C(\N)Nc1nc(C)cc(C)n1 | -3.03
O=C(O)c1cccc(NC(=O)c2cccnc2C(=O)O)c1 | -3.85
CCc1ccc(C2C(C(=O)c3ccc4c(c3)CC(C)O4)=C(O)C(=O)N2CC2CCCO2)cc1 (stereo not drawn) | 1.92
CC(C)NS(=O)(=O)c1ccc(OCC(=O)N2CCC(Cc3ccccc3)CC2)cc1 | 2.32
CCOc1cc2c(cc1OCC)C(c1cc(OC)ccc1OC)NCC2 (stereo not drawn) | 0.475
N#CCNC(=O)[C@H](Cc1cc(Cl)c(O)c(Cl)c1)NC(=O)c1cc(F)c(F)cc1F | -3.04
C/C(=N\OCC(=O)Nc1sc2c(c1C#N)CCCC2)c1ccc(Br)cc1 | 12
CC(C)OCCCNC(=O)c1cc2ccc3cccnc3c2[nH]1 | -3.09
CCOC(=O)C1=C(C)N(c2ccccc2)C(=O)C1 | 2.94
CCOP(=O)(OCC)C1(C(=O)O)CCCC1 | -0.546
Cc1cc(C)c(C(=O)/C(=C/c2cccc3ccccc23)c2ccccc2)c(O)n1 | -1.96
O=C(NC1CCCc2ccccc21)C1CCCN(c2ncnc3onc(-c4ccc(F)cc4)c23)C1 (stereo not drawn) | 7.46
c1ccc(C2OCCN3CCCCC23)cc1 (stereo not drawn) | -0.105
COc1ccc(NC(=O)CN(c2cccc(OC)c2)S(C)(=O)=O)cc1 | -13.3

Compound | % Inhibition @ 10 uM [%]
COc1ccc(OC)c(S(=O)(=O)c2ccc(Br)cc2)c1 | -0.0369
CCOCC(=O)Nc1ccc(C(=O)c2ccccc2)cc1 | -4.15
CC(=O)c1ccc(NC(=O)c2c(C)nn(-c3ccccc3)c2Cl)cc1 | -0.864
O=C1CC(N2CCCCC2)C(=O)N1c1cccc(Br)c1 (stereo not drawn) | -1.26
Cc1cc(C)c2nc(N3CCC(C(=O)NCCN4CCOCC4)CC3)sc2c1 | 0.137
Cc1ccc(C2=N/C(=C\c3cc(Br)cs3)C(=O)O2)cc1 | -3.15
O=C(Nc1ccc(Cl)cc1)c1cc(Br)ccc1NS(=O)(=O)c1ccc(Cl)c([N+](=O)[O-])c1 | -1.42
O=C(COc1ccc(Cl)cc1Cl)Nc1cccc(F)c1 | 4.57
O=C(Nc1nc(-c2ccc3ccccc3c2)cs1)c1ccc(S(=O)(=O)N2CCCCC2)cc1 | -3.92
COc1ccc(C2C3=C(Nc4ncnn42)c2ccccc2OC3c2ccccc2Cl)cc1OC (stereo not drawn) | -1.62
Cc1cc(C)cc(OCCCCCN2CCNCC2)c1 | 2.84
O=C(Nc1cccc(O)c1)c1cccc(F)c1 | -4.21
Cc1ccc(-c2nnc(S)n2/N=C/c2c[nH]c3ccccc23)cc1 | -0.85
O=C1NC(=O)C(CC2CCCCC2)C(=O)N1 | 7.42
Cc1ccc(-c2cc(C(=O)Nc3ccc(C(N)=O)cc3)c3ccccc3n2)o1 | 6.1
CCOC(=O)c1sc2c(c1NC(=O)c1ccc3c(c1)OCCO3)CCCC2 | 17
C=CCN1C(=O)/C(=C\c2sccc2C)C(C(=O)OC)=C1C | 1.81
COC(=O)C1=C(C)OC(N)=C(C#N)C1c1ccccc1OC (stereo not drawn) | -0.546
Cc1ccc(C(=S)Nc2ccccn2)cc1 | 15.5
C#CCOC(=O)CCCC(=O)Nc1ccc(Cl)cc1Cl | 1.63
O=C(CN1C(=O)c2cccc3cccc(c23)C1=O)NCC1CCCO1 (stereo not drawn) | 19.7
Cc1cccc(C(=O)Nc2ccc(C)c(O)c2)c1 | 2.5
